Source: the supplement of paper PMC9446081
In all, about 39,000 compounds went through this assay and about 220 (0.56%) showed activity. This is one part of the list.

Test system: Escherichia coli K-12 BW25113
Experiment: relative growth (OD600 normalised to plate interquartile mean) (fraction); higher = less growth inhibition, active = 0.2 or less
Details: 50 µM; LB; incubation time: overnight (16-24 h)
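Further: static incubation at 37 °C against the wild-type strain, values averaged over two biological replicates.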

Structure (SMILES) | relative growth
C[C@@H]1CCCCO[C@@H](CN(C)Cc2ccc(C(F)(F)F)cc2)[C@@H](C)CN([C@@H](C)CO)C(=O)c2cc(NS(=O)(=O)c3ccccc3)ccc2O1 | inactive: 1.04
COc1cccc(S(=O)(=O)N2C[C@H](O)COC[C@@H]3O[C@H](CC(=O)N4CCN(c5ccccc5)CC4)CC[C@H]32)c1 | inactive: 1.02
NCCCCCNC(=O)[C@@H]1C[C@@H]2C(=O)NCC(=O)N2[C@@H]1c1cccc(OCCO)c1 | inactive: 1.01
Cc1cc(C(=O)Nc2ccc3c(c2)C(=O)N(C)[C@H]2CC[C@H](CC(=O)NCC(F)(F)F)O[C@@H]2CO3)no1 | inactive: 1
C[C@H](CO)N1C[C@H](C)[C@@H](CN(C)C(=O)Nc2ccc3c(c2)OCO3)Oc2ccc(NC(=O)c3ccncc3)cc2CC1=O | inactive: 0.963
Cc1ccc(S(=O)(=O)Nc2cccc3c2O[C@H](CN(C)S(=O)(=O)c2ccc(F)cc2)[C@H](C)CN([C@H](C)CO)C3=O)cc1 | inactive: 0.986
C[C@H](CO)N1C[C@H](C)[C@H](CN(C)C(=O)CN2CCOCC2)Oc2ncc(-c3cncnc3)cc2C1=O | inactive: 0.983
C[C@@H]1CCCCO[C@H](CN(C)Cc2ccc(Cl)c(Cl)c2)[C@@H](C)CN([C@H](C)CO)C(=O)c2cc(NC(=O)Nc3ccccc3)ccc2O1 | inactive: 1.06
COc1ccc(NC(=O)Nc2ccc3c(c2)C(=O)N([C@H](C)CO)C[C@@H](C)[C@@H](CN(C)C(=O)C2CCCCC2)OCCCC[C@H](C)O3)cc1 | inactive: 1
C[C@@H]1CCCCO[C@H](CN(C)C(=O)C2CCCCC2)[C@@H](C)CN([C@@H](C)CO)C(=O)c2cc(NC(=O)CCC(F)(F)F)ccc2O1 | inactive: 1
C[C@H](CO)N1C[C@H](C)[C@@H](CN(C)C(=O)Nc2ccc3c(c2)OCO3)Oc2c(NS(=O)(=O)c3cn(C)cn3)cccc2C1=O | inactive: 0.984
COc1ccc(NC(=O)Nc2ccc3c(c2)CC(=O)N([C@H](C)CO)C[C@H](C)[C@@H](CN(C)Cc2ccc(-c4ccccc4)cc2)O3)cc1 | inactive: 0.982
COC(=O)c1c(C)c2c(c(C)c1OC)OC(=O)c1c(C)c(Cl)c(OC)c(Cl)c1O2 | inactive: 1.17
CN1CC2(COC2)OCCS1(=O)=O | inactive: 0.978
NCC(=O)N1C[C@H](NC(=O)c2ccccc2)C[C@H]1C(=O)O | inactive: 0.994
C[C@@H]1CN([C@H](C)CO)C(=O)Cc2cc(NC(=O)C3CCCCC3)ccc2O[C@H]1CN(C)S(=O)(=O)c1cn(C)cn1 | inactive: 0.996
Clc1ccc2sc(Sc3ccccc3)nc2c1 | inactive: 0.985
C[C@@H]1CCCCO[C@@H](CN(C)Cc2ccc3c(c2)OCO3)[C@@H](C)CN([C@@H](C)CO)C(=O)c2cc(NS(=O)(=O)c3ccc(F)cc3)ccc2O1 | inactive: 0.983
C[C@H](CO)N1C[C@H](C)[C@@H](CN(C)S(=O)(=O)c2cccs2)OCCCC[C@H](C)Oc2ccc(NC(=O)Nc3cccc4ccccc34)cc2C1=O | inactive: 1.04
C[C@H](NC(=O)c1c(N)nn2cccnc12)c1cc2cccc(C#Cc3cnn(C)c3)c2c(=O)n1-c1ccccc1 | inactive: 1.03

Structure (SMILES) | relative growth
Cc1ccc(C(=O)NCCN2CCNC2=O)cc1 | inactive: 0.973
C[C@@H]1CCCCO[C@H](CN(C)Cc2ccccc2)[C@H](C)CN([C@H](C)CO)C(=O)c2cc(NC(=O)Nc3cccc4ccccc34)ccc2O1 | inactive: 1.02
CN(C)CCCCCCNC(=O)[C@H]1C[C@H]2C(=O)N3CCC[C@H]3C(=O)N2[C@H]1c1cccc(OCCO)c1 | inactive: 1.01
C[C@@H]1CCCCO[C@@H](CN(C)CC2CCCCC2)[C@H](C)CN([C@@H](C)CO)C(=O)c2cc(NS(=O)(=O)c3cccs3)ccc2O1 | inactive: 1.04
C[C@H]1CN([C@@H](C)CO)C(=O)Cc2cc(NC(=O)Cn3cnnn3)ccc2O[C@H]1CN(C)Cc1ccc(C(=O)O)cc1 | inactive: 1.01
Cc1ccc(S(=O)(=O)Nc2ccc3c(c2)C(=O)N([C@H](C)CO)C[C@H](C)[C@H](CN(C)Cc2ccncc2)OCCCC[C@H](C)O3)cc1 | inactive: 0.982
CC(COc1ccccc1)NC(C)C(O)c1ccc(O)cc1.Cl (centres undefined) | inactive: 1.02
CSCC[C@H](NC(=O)[C@@H](N)Cc1c[nH]c2ccccc12)C(=O)N[C@@H](CC(=O)O)C(=O)N[C@@H](Cc1ccccc1)C(N)=O | inactive: 0.975
COc1ccc(S(=O)(=O)N(C)C[C@H]2Oc3c(NC(=O)Nc4c(C)noc4C)cccc3C(=O)N([C@H](C)CO)C[C@@H]2C)cc1 | inactive: 0.993
CC(C)(C)c1n[nH]c(C(C)(C)C)c1Cc1c(F)cccc1Cl | inactive: 0.992
C[C@H](CO)N1C[C@H](C)[C@H](CN(C)Cc2ccc(C(=O)Nc3ccccc3N)cc2)Oc2ccc(NC(=O)Cc3cn(C)c4ccccc34)cc2CC1=O | inactive: 1.03
CCCNC(=O)N[C@H]1CC[C@H](CC(=O)N2CCN(C)CC2)O[C@@H]1CO | inactive: 0.969
C[C@@H]1CN([C@@H](C)CO)C(=O)c2cc(NC(=O)Nc3ccc(C(F)(F)F)cc3)ccc2O[C@@H](C)CCCCO[C@H]1CN(C)C(=O)Cc1ccccc1 | inactive: 1.03
O=C(C[C@@H]1C=C[C@H](NC(=O)CN2CCOCC2)[C@H](CO)O1)NCCc1ccccc1 | inactive: 0.941
C[C@@H]1CN([C@H](C)CO)C(=O)CCCn2cc(nn2)CO[C@@H]1CN(C)C(=O)Nc1ccc2c(c1)OCCO2 | inactive: 0.979
O=C(O)c1ccc(O)c(O)c1O | inactive: 0.964
C[C@@H]1CCCCO[C@H](CN(C)C(=O)Cc2ccccc2)[C@H](C)CN([C@@H](C)CO)C(=O)c2cc(NC(=O)Nc3ccc4c(c3)OCO4)ccc2O1 | inactive: 0.986
COc1ccccc1NC(=O)N(C)C[C@@H]1Oc2ncc(Br)cc2C(=O)N([C@H](C)CO)C[C@@H]1C | inactive: 0.946
C[C@H](CO)N1C[C@H](C)[C@H](CN(C)C(=O)C2CC2)Oc2ncc(-c3ccc(C(=O)N(C)C)cc3)cc2C1=O | inactive: 0.985
